About 64,000 (15%) of roughly 420,000 compounds were called active. Inconclusive means that the source gave no clear call. Such entries were picked first, then a sample of the others. Calls come from the whole dose curve; as a rule, active = well fitted inhibition curve with a large enough effect; inconclusive = small, poorly fitted or top-dose-only effect; inactive = flat fitted curve, though single readings scatter. No potency is given beside an inconclusive call; the fits are too rough.
Test: qHTS for Inhibitors of human tyrosyl-DNA phosphodiesterase 1 (TDP1): qHTS in cells in absence of CPT; note: nearly all actives have a fitted effect of over 55% in size
Details: DT40 Tdp1-/- hTDP1 cells, no CPT, ATP luminescence, 48 h; activity change, negative = growth inhibition: at 46.2 µM (top of the series) unless noted
Method in brief: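 Seeded 400 DT40-hTDP1 cells/well (vehicle DMSO, no 20 nM CPT); pinned compounds; ≥48 hr at 37 °C; CellTiter-Glo luminescence as viability measure.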
% is set by controls: 0 for no effect and ±100 for the full control effect; potency is the fitted concentration of half-maximal effect; tags give direction and shape of the fitted curve.

Structure (SMILES) | Potency | activity change, negative = growth inhibition
CCn1c(=S)sc2c(=O)n(CC(=O)Nc3ccccc3)c(C)nc21 | inconclusive [inhibitor, single point] | –
O=C(NC1CC1)c1cccc(NC(=O)c2cnn(-c3ccccc3)n2)c1 | active: 16.4 µM | –
O=C(CCl)NCc1cc(-c2ccc(Cl)cc2)no1 | active: 18.4 µM | –
O=C(Nc1ccccc1-c1nnc(SCc2ccccc2Cl)o1)c1ccccc1 | inconclusive [inhibitor, single point] | –
COc1ccccc1OCCn1cc(/C=N/n2cnnc2)c2ccccc21 | inconclusive [inhibitor, single point] | –
CCOC(=O)N1CCN(c2c(-c3ccccc3)c3cc(Cl)ccc3[nH]c2=O)CC1 | inconclusive [inhibitor, partial curve, poor fit] | –
O=[N+]([O-])c1nn(-c2ccc3c(c2)OCCO3)n(O)c1=NCc1ccccc1Cl | – | inconclusive: -32.9% [inhibitor]
CCc1nc(N2CCN(C(=O)CCl)CC2)c2c3c(sc2n1)CC(C)CC3 (stereo unspecified) | active: 6.51 µM | –
CC1CCC2(CC1)NC(=O)N(CC(=O)NCCc1ccccc1)C2=O (stereo unspecified) | inactive | –
O=C(CCCOc1ccccc1)N1CCN(c2ccc(F)cc2)CC1 | active: 18.4 µM | –
O=c1c(C(c2nnnn2C2CCCCC2)N2CCCCC2)coc2ccc(Cl)cc12 (stereo unspecified) | active: 20.6 µM | –
CCOc1ccc(NC(=O)Cc2nnc(SCC(=O)N3CCOCC3)n2C)cc1 | inactive | –
COc1cc(/C=C/C(=O)OCC(=O)NC(=O)NCc2ccccc2)ccc1OCC#N | inactive | –
O=C(NCC1CC1)C1Cc2c(-c3ccccc3Oc3ccccc3)ccnc2O1 (stereo unspecified) | inactive | –
CC(C)NC(=O)c1ccc2c(c1)N(Cc1ccccc1)C(=O)C(C)(C)O2 | inactive | –
COC(=O)c1c(C)[nH]c(C(=O)OC(C)C(=O)NC2CCCCC2C)c1C (stereo unspecified) | inconclusive [inhibitor, partial curve, poor fit] | –
O=C(c1ccc([N+](=O)[O-])cc1)N1CCN(c2ccc(Nc3ccccc3)nn2)CC1 | – | inconclusive: -30.6% [inhibitor]
Cc1ccc(CNc2ccc(-c3nc(-c4ccccn4)no3)cc2[N+](=O)[O-])cc1 | inconclusive [inhibitor, partial curve, poor fit] | –
c1coc(CSSCc2ccco2)c1 | inconclusive [inhibitor, single point] | –
O=C(Nc1cc(S(=O)(=O)N2CCCCC2)ccc1N1CCCCC1)c1ccncc1 | inconclusive [inhibitor, single point] | –
CC(C)(C)c1ccc2cccc(F)c2n1 | inactive | –
Cc1c(Cl)c([N+](=O)[O-])nn1CCCC(=O)NC1CCCCC1 | inactive | –
COc1ccc(-c2coc3c(C(=O)NCCc4ccccc4)cccc23)c(C)c1 | active: 16.4 µM | –
O=C1CC[C@@H](C(=O)N2CSC[C@@H]2C(=O)Nc2cccc(C(F)(F)F)c2)N1 | inactive | –
Cc1cccc(-c2nc(CN3CCCC(C(=O)NC4CCC(C)CC4)C3)c(C)o2)c1 (stereo unspecified) | active: 18.4 µM | –
CCOC(=O)c1c(S(=O)(=O)N2CCC(C(=O)Nc3ccc(OCC)cc3)CC2)c(C)n(C)c1C | inactive | –

Structure (SMILES) | Potency | activity change, negative = growth inhibition
CN(C)c1ncc2nc(-c3cccs3)c(=O)n(Cc3cccs3)c2n1 | inactive | –
O=C(Nc1cc(S(=O)(=O)N2CCOCC2)ccc1N1CCOCC1)c1cn2ccccc2n1 | inconclusive [inhibitor, single point] | –
COc1ccc(NC(=O)N2CCCC(c3nc(-c4ccc(F)cc4)no3)C2)cc1 (stereo unspecified) | inactive | –
CCCCC(=O)Oc1c(S(=O)(=O)c2ccccc2)c(C)nn1C(C)(C)C | inconclusive [inhibitor, single point] | –
CC(=O)Nc1ccc(NC(=O)c2ccc(N(C)S(=O)(=O)c3ccc(C)cc3)cc2)cc1 | inactive | –
Cc1cc(C)nc(NS(=O)(=O)c2ccc(NC(=O)CCC(=O)O)cc2)n1 | inactive | –
CC(Sc1nc2ncc(Cl)cc2[nH]1)C(=O)Nc1ccc(C(N)=O)cc1 (stereo unspecified) | inactive | –
Cc1cc(C(=O)N/N=C/c2ccc(N(C)C)o2)cs1 | active: 16.4 µM | –
O=C(Nc1nnc(-c2ccccc2)o1)c1nc2ccccc2s1 | inconclusive [inhibitor, single point] | –
CC(=O)CSc1nsc(SCC(C)=O)c1C#N | active: 18.4 µM | –
O=C(Nc1cccc([N+](=O)[O-])c1)C1C2CC/C=C\CCC21 (stereo unspecified) | active: 18.4 µM | –
CC(=O)N[C@@H](Cc1ccc(O)cc1)CN1C(N)=NC[C@@H]1CC(C)C | inactive | –
CC(C)(C)S(=O)(=O)/C(C#N)=C/c1sccc1C1OCCO1 | inconclusive [inhibitor, single point] | –
c1ccc(-c2ccc(-c3nc(-c4ccccn4)no3)cc2)cc1 | active: 10.3 µM | –
CCCCCCCCCS(=O)(=O)Nc1cc(C)ccn1 | inconclusive [inhibitor, single point] | –
Cc1ccc(S(=O)(=O)N2CCCCC2)cc1NC(=O)[C@@H]1CCCN1C(=O)c1cccs1 | inactive | –
COc1ccc(C2=NN(C(=O)CCC(=O)O)C(c3ccccc3)C2)cc1 (stereo unspecified) | inactive | –
CCCCCCCc1nn2c(=O)cc(O)nc2s1 | inconclusive [inhibitor, partial curve] | –
COc1ccc(NC(=O)C2CC(=O)N/C(=N/N=C/c3ccccc3)S2)cc1 (stereo unspecified) | inactive | –
CCc1cc[n+](-c2nc3ccccc3nc2C(=C=[N-])C#N)cc1 | inactive | –
Cc1ccc(C)n1-n1c(C)nc2scc(-c3cccs3)c2c1=O | active: 18.4 µM | –
COc1cccc(C(O)c2ncc(-c3ccc(Cl)cc3)[nH]2)c1 (stereo unspecified) | inconclusive [inhibitor, single point] | –
c1ccc2sc(NN=C3CCCCCC3)nc2c1 | inconclusive [inhibitor, single point] | –
O=C(NCc1ccccc1Cl)c1ccc(Nc2nc3ccccc3n3nnnc23)cc1 | inconclusive [inhibitor, partial curve] | –
CCc1ccc(C2c3c(-c4cc(C)ccc4O)n[nH]c3C(=O)N2Cc2cccnc2)cc1 (stereo unspecified) | inconclusive [inhibitor, single point] | –

Reference: PubChem BioAssay AID686978 (National Center for Advancing Translational Sciences (NCATS), 2013)
